This note sets out measurements from the RNAGym collection of RNA variant scans (doi:10.7554/elife.90254).

The source gives no read counts; variants with many changes may rest on few reads.

First the molecules themselves.
B1: LINE1-mini (parent)
chain: GGCAGAGCUCAACACAGCGUGGCAAAGUGGCUGUGGCUAGACUGCC

In this series the parent is B1. Nature of the series: self-cleavage, relative activity (ratio to wild type); higher = more cleavage; in vitro, sequencing; the parent is a self-cleaving ribozyme.
Consider G2C C3A A6G G40A, for which the self-cleavage is 0.03. Then G2A C23U C37A, with 0.18; and G2C G19A C37U G44U C46A, with 0.01; and G2C C18U G29U G36U C46U, with 0.52. Then G2C G19C C23U U28C U38G, with 0.1. For the variant G2C A12G G17U U28G, the self-cleavage amounted to 0.02. Then G2A U9G G22U U34G, with 0.15. As for G2C C3G G44U, the figure is 0.05; as for G2C A4G C8G G17A U38A, 0.04; as for G2C G5A G29U C37U, 0.06. As for G2C G7U A14G U38A A41U, the figure is 0.06; as for G2C A25G G33A C37A G40U, 0.04. Regarding G2C G5C A11C G19U A25C G35C, the self-cleavage is 0. Then G2A C18A C31U, with 0.02; and G2C G7C C46U, with 0.1. Then G2A G17U G44U, with 0.16. As for G2C A11G U20A, the figure is 0.01; as for G2C C8A G27A U28A G30C U43G, 0; as for G2C C3A A16U C18U G36A, 0.1.

Turning to G2C G5A G40A, the self-cleavage was 0.09.

As to G2C A12C C18G U34C, the self-cleavage turned out to be 0.01. As for G2C C13G C23A G30A G35U U38A G40A, the figure is 0.09. Then G2C C3U C8U G30U G44A, with 0.61; and G2C A26G G36C C46A, with 0.04.

As to G2A C37G U43A, the self-cleavage stood at 0.18. As for G2C G5A C8A G17C U28C G33U A41G, the self-cleavage worked out at 0.07. Then G2A G36A A39U, with 0.36.

Take G2C A4U C10A G21A U32G G35C A41C C45A: the self-cleavage stood at 0.01.

On to G2C A4U U20G, for which the self-cleavage worked out at 0.03. Consider G2C A16C G21U G30U, for which the self-cleavage was found to be 0.1. As for G2A G17A U34G, the figure is 0.19; as for G2C C10U C31A C46A, 0.01; as for G2C C15A G19C G40U, 0.01. Take G2C A12G G17A C18U U34A C37U: the self-cleavage turned out to be 0.02. Then G2C C3G G7U C46G, with 0.12; and G2A G7U C18U A26C G40A C45A, with 0.28. As for G2A C37U U43A, the figure is 0.2; as for G2C C3G U9C C23A G29U C42U U43C C45A, 0.01. As for G2C C10A C13U C15A C42A, the figure is 0. Take G2C G5C G17A C42G G44U: the self-cleavage came out at 0.01. Then G2C C13G A16C A25C, with 0.02. Then G2A G21U U32G C46G, with 0.28; and G2C A6C G17U U34G, with 0.04.

Consider G2C A6C A11C A24C, for which the self-cleavage was determined as 0.05.

Consider G2A U20A G33C U43A, for which the self-cleavage is 0.03. As for G2A G7A A12C C23A U32A G36C G40C, the figure is 0.01; as for G2C C18A U28C G33U U34C C42G C46U, 0.02; as for G2C A4C A6U C15G A25U, 0.02. For G2C A14C G33U U34C, the self-cleavage was 0.18. Then G2A C31G G40A, with 0.12; and G2C C18A C23U G27A, with 0.01. Then G2C C31U G33U, with 0.07; and G2C A12G G33U, with 0.07. As for G2C A24U A41U, the figure is 0.04; as for G2C C3U C23U, 0.83; as for G2A G5A C10A A26C G33C C37A A39G C42U, 0.04. Take G2C G5C A14G G19A G27C G29A C45G: the self-cleavage came out at 0.04. Then G2A U9G G19U U38A, with 0.23; and G2C G5U C31A, with 0.05; and G2A G7C A26G, with 0.93. G2C G19A G27A G35U C37A: the self-cleavage worked out at 0.71. Then G2C C37G G40C, with 0.01.

For the variant G2C A6U C10A A25C C42U G44A C45U, the self-cleavage is 0.01.

With G2C A4U A6U, the self-cleavage is 0.02.

G2C A4C G7C C8U G30U: the self-cleavage amounted to 0.18. Then G2C G5C A16G, with 0.03.

For G2A G7U C10A A12G A26C, the self-cleavage came to 0.06. As for G2C A14U C15A G40A, the figure is 0.01; as for G2C A6G A25G A26U U34A G35U, 0.07.

Regarding G2C A26G G30C G35A A41G, the self-cleavage worked out at 0.13. Then G2C C15A G17C C18U G21C G27U C42U C45U, with 0.01; and G2A U9G A14U C15G U38G C45A, with 0.12. Then G2C A14G C46A, with 0.01. As for G2C C3A C18A A41G, the figure is 0.05; as for G2A G7U U9C A12U C13G A24G G33A G35U, 0.02; as for G2A G29U G35U, 0.18.

For the variant G2A C18A A25G G30C, the self-cleavage was found to be 0.07. As for G2A G21U A25U C31A C42A, the figure is 0.12; as for G2C C3G G21A G35C A41U C45U, 0.02. As for G2C A4G U9C G21U C31A G35A, the figure is 0.03; as for G2A G5A C37A, 0.82. Then G2A G5U G21U, with 0.1; and G2C C8A G21C G33A G40A, with 0.09. For the variant G2C G17U G27A, the self-cleavage was 0.08. As for G2A G7C A12G G33U, the figure is 0.7; as for G2A G17A A25C G44U, 0.19. Then G2A U34C A41C, with 0.4; and G2A U9G G40U, with 0.07.

Consider G2C C8A C15A C46A, for which the self-cleavage stood at 0.06. Then G2A G5A U9G C15A G17U C18A G33C U38A A41G, with 0.02; and G2C G7C U28G U32A, with 0.1. As for G2C A11U G27C, the self-cleavage worked out at 0.02.

For G2C C3U C10U G33U, the self-cleavage stood at 0.04. As for G2A U9A A24U, the figure is 0.54; as for G2A G17U G22C G27U, 0.48; as for G2A G7A U28A G33C U38C C46G, 0.04. As for G2C A6C C8A G22A G29A, the self-cleavage came out at 0.03. As to G2A U20C U28G, the self-cleavage came out at 0.32.

In the case of G2C G17A G44C C45U, the self-cleavage turned out to be 0.02. Then G2A C18U G29A, with 0.72. Then G2C A12U G27U, with 0.01; and G2A U9A U28G C31U C37A C46A, with 0.06. As for G2A G17U C18A C23A, the figure is 0.09; as for G2C G17U A41C, 0.08; as for G2C G17C G19U U38C, 0.01. Regarding G2A G19U G27U G36A U43A, the self-cleavage is 0.26. For G2C A6G C13U G29A, the self-cleavage is 0.13. As for G2C A4G U34C, the figure is 0; as for G2A G22U U28C C31A U32A, 0.23; as for G2C C3U U9G C10U A12C G29U, 0.06.

For G2A G5A C15G G22A A24U G30A, the self-cleavage stood at 0.07. Then G2C G7A A16C C18G G33U C45A, with 0.

For the variant G2A G7C A11G G30C A39C, the self-cleavage was 0.02.

As for G2C C3U C18G, the self-cleavage was determined as 0.03.

Consider G2A G5U C18A A24G G29A G40A, for which the self-cleavage came out at 0.04. Then G2A G5A C15A U34A, with 0.38. Then G2C C10A C13A G36C, with 0.15; and G2C A6U C18U C42A, with 0.04.

For the variant G2A C23A A26G A39U U43C, the self-cleavage amounted to 0.12.

Consider G2A G21A A25C A26C, for which the self-cleavage stood at 1.55. G2C G17U C23U A25U G36U A39C: the self-cleavage turned out to be 0.02.

G2C C15A A26C G30A C31G: the self-cleavage came to 0.04.

On to G2A U20A C45G, for which the self-cleavage is 0.8. Then G2A U38C A41C, with 0.03. Then G2C C8U C13A G36C, with 0.01. G2C C13A C23U: the self-cleavage is 0.13. As for G2C A6C U20C C23U G30A G35C C46G, the figure is 0.06. Then G2C C18A A25U, with 0.09; and G2C C23U A25C G27A G30C, with 0.1; and G2A U9C A24U C37U U38G, with 0.02. For G2C A24G U28A G35U G36C, the self-cleavage was determined as 0.08. As for G2A G5U A24C U34G U38C, the self-cleavage was 0.08. Consider G2A G5A C42G, for which the self-cleavage worked out at 0.07.

Regarding G2A U9A C37A, the self-cleavage worked out at 0.3. As for G2C G7U A11C C23G, the figure is 0.06; as for G2A G19U A39C, 0.21. Then G2C A39U G40U, with 0.05; and G2C G7U G21C G33A, with 0.05. As for G2C A26U G27U C37G C42A, the figure is 0; as for G2C C10U U34A U38C C46U, 0. On to G2A G29U G35A C42A C45G, for which the self-cleavage turned out to be 0.13.

Turning to G2C A6G A39C, the self-cleavage stood at 0.01. As for G2A U9C G33C, the figure is 0.05; as for G2C A14U G35A G36U C46G, 0.09. As for G2A U28A G33U C37A G40C G44U, the figure is 0.05. As for G2C A4G A16G G30A, the figure is 0.02; as for G2C C15A A16U A25U G27U U32G, 0.06. For the variant G2A G30U U32A G35U C37U G40U C45G, the self-cleavage was 0.11. As for G2C A12G G33C A41U C46G, the figure is 0.03; as for G2C C18G C45U, 0.02. Regarding G2A U9G C18U U20A G22C C31U U38G, the self-cleavage is 0.04. As to G2A G5C A11C, the self-cleavage was 0.02. Then G2C A12U U20A, with 0.06; and G2C A25U U32G, with 0.06. Then G2C C8A G17A G27C A39U, with 0.06. As for G2C G7A G35A, the figure is 0.24. Take G2C G5A A26G: the self-cleavage was 0.03.

Turning to G2A G5A G17U G21A, the self-cleavage was 0.19. Turning to G2C C18U C42A, the self-cleavage came to 0.18. Then G2C A11U A24C U32A C42G, with 0. Then G2A G7A G35U G40U, with 0.48. Then G2C G5C G33A C45A, with 0.03; and G2C C13U G21A A24U, with 0.01. On to G2C A14C C15G U43A, for which the self-cleavage is 0.01.

Consider G2C G5A A12G G17U G27C U38G C46G, for which the self-cleavage turned out to be 0.06. As for G2C C3U A4C G7A, the figure is 1.5; as for G2A G7C A39C G40A, 0.04.
